In PubChem BioAssay AID493208 (National Center for Advancing Translational Sciences (NCATS), 2011):
Hit rate of the full screen: of about 44,000 compounds, about 340 (0.77%) were called active. Inconclusive results (about 5%) are left out. Calls come from the whole dose curve; as a rule, active = well fitted inhibition curve with a large enough effect; inconclusive = small, poorly fitted or top-dose-only effect; inactive = flat fitted curve, though single readings scatter. This is one part of the list.

Test: Acumen qHTS Assay for Inhibitors of the mTORC1 Signaling Pathway in MEF (Tsc2-/-, p53-/-) Cells: Sytravon;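 note: plate controls were DMSO for no effect and rapamycin for full effect; nearly all actives have a fitted effect of over 50% in size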
Details: phospho-rpS6 immunofluorescence/PI, 24 h; series mostly up to 38.3 µM; activity change, negative = inhibition: at the top concentration
Outline: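 Immunofluorescence of rpS6 phosphorylation in Tsc2-/-, p53-/- MEFs after 24 h compound exposure, normalized to propidium iodide signal. Activity is expressed as % positive cells, thresholded with 7.5 nM rapamycin.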

| SMILES | activity change, negative = inhibition |
| --- | --- |
| COc1ccc(NC(=O)Cn2nc(C)c3c(C)n(-c4ccccc4)nc3c2=O)cc1OC | inactive: -4.63% |
| COc1cc(C(=O)OCc2cc(=O)n3ccsc3n2)cc(OC)c1OC | inactive: -11.3% |
| COc1ccc(S(=O)(=O)NCC(c2ccco2)S(=O)(=O)c2cccs2)cc1OC (stereo unspecified) | inactive: -2.47% |
| CCOc1cc(-c2cc(C(=O)O)c3c(-c4ccccc4)[nH]nc3n2)ccc1O | inactive: 2.7% |
| Cc1ccc(NC(=O)N(Cc2c[nH]c3ccccc23)C2CCCCCC2)cc1C | inactive: 2.12% |
| O=c1n(Cc2ccc([N+](=O)[O-])cc2)c2ccccc2c2nc(-c3ccccc3)nn12 | inactive: -0.59% |
| Cn1c(=O)n(C)c2cc(CNCc3ccc(F)cc3)ccc21 | inactive: -6.32% |
| Cc1ccc(C(=O)N2CCc3cc(CNC(=O)c4ccccc4F)ccc32)cc1 | inactive: 0.382% |
| Cc1c(NC(=O)Nc2ccccc2C(F)(F)F)c(=O)n(-c2ccccc2)n1C | inactive: -8.19% |
| Cc1cc(C)cc(-n2c(SCC(=O)Nc3ccccc3F)nc3c(oc4ccccc43)c2=O)c1 | inactive: -10% |
| CCOc1ccc(NC(=O)c2cccc3c(=O)c4c([nH]c23)CCCC4)cc1 | inactive: -11.1% |
| Cc1ccc(Cn2cnc3nc4c(cc3c2=O)CCCC4)cc1 | inactive: 1.03% |
| O=C(CS(=O)(=O)c1ccc(Cl)cc1)Nc1nc2ccc(Br)cc2s1 | inactive: -1.21% |
| COc1ccc(CCNC(=O)CCN2N=C(c3ccccc3)CCC2=O)cc1OC | inactive: 0.612% |
| Cc1oc2ncn(CC(C)C)c(=O)c2c1C(=O)N1CCN(c2ccccc2F)CC1 | inactive: -0.196% |
| Cc1cc(C)c(NC(=O)CN(c2ccccc2)S(=O)(=O)N(C)C)c(C)c1 | inactive: 12.7% |
| CSc1ccc(CCNC(=O)CN2C(=O)COc3ccc(S(=O)(=O)N4CCCC4)cc32)cc1 | inactive: -17.6% |
| O=C(Nc1ccc2oc(-c3ccc4ccccc4c3)nc2c1)c1cccc(Cl)c1Cl | inactive: -20.1% |
| CCOc1ccc(NC(=O)c2cnn3c2NC(c2ccccc2)=CC3c2cccc(OC)c2OC)cc1 (stereo unspecified) | inactive: -20% |
| Clc1ccc(-c2nnn3c2nc(N2CCCCC2)c2ccccc23)cc1 | inactive: 2.42% |
| Cc1ccccc1NC(=O)c1cc2ccccc2o1 | inactive: -0.0724% |
| Cc1ccccc1-n1c(=O)c2ccccc2n(Cc2ccc(F)cc2)c1=O | inactive: -9.92% |
| COC(=O)c1sc2cccc(F)c2c1S(=O)(=O)NCc1ccc(F)cc1 | inactive: -16.4% |
| COc1ccc(C2CC(=O)N(Cc3cccc(C)c3)c3c2c(C)nn3-c2nc(C)cc(C)n2)c(OC)c1 (stereo unspecified) | inactive: -0.385% |

| SMILES | activity change, negative = inhibition |
| --- | --- |
| COc1ccc(-n2c(=O)c3c4c(sc3n(Cc3c(F)cccc3Cl)c2=O)CN(C(C)=O)CC4)cc1OC | inactive: -0.407% |
| O=C(Nc1ccc(F)cc1)c1ncn(-c2ccccc2)n1 | inactive: -6.32% |
| Cc1ccc(-c2noc(CN(C(=O)c3ccc(C(C)(C)C)cc3)C(C)C)n2)cc1 | inactive: -8.07% |
| COc1cccc(NC(=O)Cn2c(=O)c3cccn3c3ccc(F)cc32)c1 | inactive: 3.23% |
| CCOC(=O)c1ccccc1NC(=O)CN(c1cc(C(F)(F)F)ccc1Cl)S(C)(=O)=O | inactive: -2.94% |
| CCCCSCCCNC(=O)c1cn(CC)c2ccc(S(=O)(=O)N(C)C3CCCCC3)cc2c1=O | inactive: -0.312% |
| COc1cccc(-c2nc(SCC(=O)NCc3ccccc3)c3c(=O)n(C)c(=O)n(C)c3n2)c1 | inactive: -11.7% |
| O=C(Cn1ccc2cc(S(=O)(=O)N3CCCCCC3)ccc21)NCCc1ccccc1Cl | inactive: -9.59% |
| Cc1ccc(CCNC(=O)CCS(=O)(=O)c2ccc3c(c2)oc(=O)n3C)cc1 | inactive: 0.561% |
| COc1cccc(N2CCN(S(=O)(=O)c3ccc(-c4cc(C(F)(F)F)on4)s3)CC2)c1 | inactive: -1.87% |
| Cc1noc(NS(=O)(=O)c2ccc(NC(=O)COc3ccccc3Br)cc2)c1C | inactive: -6.75% |
| CCOc1ccccc1NC(=O)Nc1ccccc1OCc1cc(=O)n2ccccc2n1 | inactive: -5.92% |
| CN(CC(=O)NCc1ccc(Cl)cc1)S(=O)(=O)c1ccc2c(c1)c(=O)n(C)c(=O)n2C | inactive: 0.96% |
| Cc1ccc(CCNC(=O)c2ccc(CS(=O)(=O)Cc3ccc(Cl)cc3)o2)cc1 | inactive: -9.77% |
| CCOC(=O)c1scc(-c2ccc(C)cc2)c1S(=O)(=O)Nc1cc(C)ccc1C | inactive: -15.4% |
| CCOc1ccccc1NC(=O)Cn1c(=O)n(-c2ccc(C)c(C)c2)c(=O)c2c(C)c(C(=O)N(C)C)sc21 | inactive: -0.516% |
| CC(Nc1ncnc2c1cnn2-c1cccc(Cl)c1)c1ccccc1 (stereo unspecified) | inactive: -24.5% |
| COc1cccc(-c2nnc(SCC(=O)N3CCc4ccccc43)o2)c1 | inactive: 0.454% |
| O=C(NCc1ccc(Cl)cc1)C(=O)NCC(c1cccnc1)N1CCN(c2ccccc2)CC1 (stereo unspecified) | inactive: -7.51% |
| Cc1cc2c(cc1C)NC(CC(=O)Nc1cccc(C)c1C)C(=O)N2 (stereo unspecified) | inactive: -11.8% |
| CCN(Cc1ccccc1)C(=O)CN1C(=O)COc2ccc(S(=O)(=O)N3CCOCC3)cc21 | inactive: -1.81% |
| CCN(c1ccc(C)cc1C)S(=O)(=O)c1nnc(NC(=O)c2ccc(F)cc2)s1 | inactive: 4.06% |
| Cc1ccc2oc(=O)c(-c3nc(-c4cccs4)no3)cc2c1 | inactive: -4.29% |
| COc1cccc(-c2cc(C(=O)Nc3ccc(OC)cc3OC)no2)c1 | inactive: -0.534% |

| SMILES | activity change, negative = inhibition |
| --- | --- |
| Cc1nn(CCC(=O)Nc2cccc(C#N)c2)c(C)c1S(=O)(=O)N1CCC(C)CC1 | inactive: 6.41% |
| COC(=O)c1ccccc1NC(=O)Cc1nc(-c2ccc(OC)cc2)no1 | inactive: 0.479% |
| COc1ccc(-n2cnc3cc(C(=O)NCCC4=CCCCC4)ccc32)cc1 | inactive: 0.373% |
| O=C(Nc1cccc(C(=O)OCc2cc(=O)n3ccsc3n2)c1)c1ccc(F)cc1 | inactive: 21.9% |
| COc1ccc(OC)c(NC(=O)CN(c2ccccc2OC)S(=O)(=O)c2ccc(C)cc2)c1 | inactive: -8.74% |
| Cc1csc2nc(COC(=O)c3ccc(NC(=O)c4ccccc4Br)cc3)cc(=O)n12 | inactive: -3.71% |
| CCOCCCNC(=O)CCC(=O)NNc1nc2ccccc2c2nc(C)nn12 | inactive: -1.32% |
| Cc1nc2nc(SCC(=O)NCCc3ccc(Cl)cc3)nn2c(C)c1Cc1c(F)cccc1Cl | inactive: -24.9% |
| CCCOc1ccc(C(=O)Nc2cccc(NC(=O)c3ccc(Cl)cc3Cl)c2)cc1 | inactive: -10.2% |
| Cc1nn(CC(=O)NCc2ccco2)c(=O)c2nn(-c3ccccc3)c(C)c12 | inactive: 0.0523% |
| CC(=O)N1CCc2cc(CNS(=O)(=O)c3ccccc3C(F)(F)F)ccc21 | inactive: 8.41% |
| Cc1cc(C)cc(NC(=O)Cn2c(C)cc(C)c(C#N)c2=O)c1 | inactive: 13.6% |
| O=C(CSc1nc2ccccc2n1Cc1cccc(C(F)(F)F)c1)NCc1ccccc1 | inactive: 0% |
| CCOc1cccc(C2Oc3nc(SC)nnc3-c3ccccc3N2C(C)=O)c1OC (stereo unspecified) | inactive: -4.05% |
| CC(=O)Nc1ccc(NC(=O)c2c(-c3ccccc3)noc2C)cc1 | inactive: 2.08% |
| O=C(O)c1ccc(CSc2nc3cccnc3n2Cc2cccc(F)c2)cc1 | inactive: -0.182% |
| Nc1ncc(S(=O)(=O)N2CCN(c3ccccc3)CC2)cn1 | inactive: -0.0412% |
| COC(=O)CC1Oc2ccc(Cl)cc2-n2cc(-c3ccc(C)cc3)nc21 (stereo unspecified) | inactive: -6.82% |
| COc1cc(NC(=O)CSc2ccc(-c3sc(C)nc3C)nn2)cc(OC)c1 | inactive: -12.6% |
| Cc1ccc(S(=O)(=O)C(CNC(=O)C(=O)NCCc2ccc(F)cc2)c2cccs2)cc1 (stereo unspecified) | inactive: -11% |
| O=C(CSc1nc2c([nH]c3ccccc32)c(=O)n1-c1ccc(F)cc1)Nc1ccc2c(c1)OCO2 | inactive: -2.61% |
| COc1ccc(Cl)cc1NC(=O)c1oc2ccc(S(=O)(=O)N3CCCCC3)cc2c1C | inactive: 1.09% |
| COc1ccc(N2CCN(C(=O)c3ccc(CS(=O)c4cccc(C)c4)o3)CC2)cc1 (stereo unspecified) | inactive: -17.9% |
| Oc1c(C(c2cccc(Cl)c2)N2CCOCC2)sc2nc(-c3ccco3)nn12 (stereo unspecified) | inactive: -0.45% |

| SMILES | activity change, negative = inhibition |
| --- | --- |
| CCN1c2ccccc2-c2nc(SCC(=O)Nc3cc(C)c(Cl)cc3OC)ncc2S1(=O)=O | inactive: 0% |
| COc1ccc(CCNC(=O)c2c3c(nc4ccccc24)C(=O)N(C2CCCCC2)C3)cc1OC | inactive: -7.97% |
| Cc1ccc(C)c(N2CCN(c3nc4ccccc4n4nnnc34)CC2)c1 | inactive: 1.03% |
| O=C(COc1ccc(F)cc1)NCc1ccc2c(c1)CCN2C(=O)c1ccc(F)cc1 | inactive: -6.91% |
| O=C(Nc1ccc(F)c(Cl)c1)C1CCN(c2ncccn2)CC1 | inactive: 3.41% |
| Cc1cccc(OCC(=O)Nc2ccc(S(=O)(=O)N(Cc3ccccc3)c3ccccc3)cc2)c1 | inactive: -8.47% |
| Cc1cc(-n2c(C)nc3ccccc3c2=O)ccc1NC(=O)c1cccc([N+](=O)[O-])c1C | inactive: -0.578% |
| CCc1nn(CC(=O)NCC(C)c2ccccc2)c(=O)c2cc3c(OC)cccc3n12 (stereo unspecified) | inactive: 0.666% |
| COC(=O)c1ccccc1NC(=O)C1CCCN(C(=O)c2cnn(-c3ccc(F)cc3)c2-n2cccc2)C1 (stereo unspecified) | inactive: -5.04% |
| Cc1cc(Br)cc(C)c1OCC(=O)Nc1ccc(S(=O)(=O)Nc2ncccn2)cc1 | inactive: 6.78% |
| COCCn1c(=O)[nH]c2cc(C(=O)N3CCN(c4ccc(F)cc4)CC3)ccc2c1=O | inactive: -10.3% |
| Cc1ccc(-n2ncc3c(N4CCN(Cc5ccccc5)CC4)ncnc32)cc1C | inactive: 2.44% |
| N#C/C(=C\c1ccc(-c2ccc(Br)cc2)o1)C(=O)Nc1ccccc1O | inactive: 5.67% |
| Cc1oc(-c2ccccc2F)nc1Cn1c(SCc2cccc(Cl)c2)nc2ccncc21 | inactive: -9.95% |
| CCOCCc1nn2c(=O)cc(COC(=O)c3ccccc3Br)nc2s1 | inactive: 1.75% |
| Cc1ccc(CNC(=O)C(=O)NCC(c2cccs2)S(=O)(=O)c2ccccc2)cc1 (stereo unspecified) | inactive: -15.1% |
| CCCn1c(=N)c(C(=O)NCc2ccccc2)cc2c(=O)n3cccc(C)c3nc21 | inactive: -1.24% |
| Cc1oc2ccc(O)c(CN3CCN(Cc4ccccc4)CC3)c2c1C(=O)Nc1ccccc1 | inactive: -4.41% |
| CN(C)c1ccc(CNC(=O)CN2C(=O)c3cccnc3Oc3ccc(Cl)cc32)cc1 | inactive: 2.76% |
| Cc1nn(CC(=O)NCc2cccc(Br)c2)c(=O)c2c1sc1ccccc12 | inactive: -2.52% |
| Cc1cc(C)c(S(=O)(=O)NCCc2cc3cc(C)c(C)cc3[nH]c2=O)c(C)c1 | inactive: -3.15% |
| O=S(=O)(NCCc1nnc2ccc(SCc3ccc(C(F)(F)F)cc3)nn12)c1ccccc1 | inactive: -7.31% |
| COc1ccc(NC(=O)CSc2nnc(-c3ccc(OC)cc3)s2)cc1 | inactive: -4.04% |
| COc1cccc(C(c2sc3nc(-c4ccco4)nn3c2O)N2CCOCC2)c1 (stereo unspecified) | inactive: -0.525% |
